# Measured values as given in article PMC4336329 (PLoS ONE, 2015).
# Among all 310,000 compounds or so, about 14,000 (4.5%) showed an effect of 50% or more. The effect is printed as a negative number. This is one part of the list.
# Biological target: human ether-à-go-go-related gene (hERG) potassium channel (human, UniProt Q12809)
# Assay: primary screen, population patch clamp on CHO cells stably expressing hERG
# 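Also: peak tail current of the secondary pulse compared with the same well before compound.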
# human ether-à-go-go-related gene (hERG) potassium channel, sequence (Q12809 whole entry, looked up): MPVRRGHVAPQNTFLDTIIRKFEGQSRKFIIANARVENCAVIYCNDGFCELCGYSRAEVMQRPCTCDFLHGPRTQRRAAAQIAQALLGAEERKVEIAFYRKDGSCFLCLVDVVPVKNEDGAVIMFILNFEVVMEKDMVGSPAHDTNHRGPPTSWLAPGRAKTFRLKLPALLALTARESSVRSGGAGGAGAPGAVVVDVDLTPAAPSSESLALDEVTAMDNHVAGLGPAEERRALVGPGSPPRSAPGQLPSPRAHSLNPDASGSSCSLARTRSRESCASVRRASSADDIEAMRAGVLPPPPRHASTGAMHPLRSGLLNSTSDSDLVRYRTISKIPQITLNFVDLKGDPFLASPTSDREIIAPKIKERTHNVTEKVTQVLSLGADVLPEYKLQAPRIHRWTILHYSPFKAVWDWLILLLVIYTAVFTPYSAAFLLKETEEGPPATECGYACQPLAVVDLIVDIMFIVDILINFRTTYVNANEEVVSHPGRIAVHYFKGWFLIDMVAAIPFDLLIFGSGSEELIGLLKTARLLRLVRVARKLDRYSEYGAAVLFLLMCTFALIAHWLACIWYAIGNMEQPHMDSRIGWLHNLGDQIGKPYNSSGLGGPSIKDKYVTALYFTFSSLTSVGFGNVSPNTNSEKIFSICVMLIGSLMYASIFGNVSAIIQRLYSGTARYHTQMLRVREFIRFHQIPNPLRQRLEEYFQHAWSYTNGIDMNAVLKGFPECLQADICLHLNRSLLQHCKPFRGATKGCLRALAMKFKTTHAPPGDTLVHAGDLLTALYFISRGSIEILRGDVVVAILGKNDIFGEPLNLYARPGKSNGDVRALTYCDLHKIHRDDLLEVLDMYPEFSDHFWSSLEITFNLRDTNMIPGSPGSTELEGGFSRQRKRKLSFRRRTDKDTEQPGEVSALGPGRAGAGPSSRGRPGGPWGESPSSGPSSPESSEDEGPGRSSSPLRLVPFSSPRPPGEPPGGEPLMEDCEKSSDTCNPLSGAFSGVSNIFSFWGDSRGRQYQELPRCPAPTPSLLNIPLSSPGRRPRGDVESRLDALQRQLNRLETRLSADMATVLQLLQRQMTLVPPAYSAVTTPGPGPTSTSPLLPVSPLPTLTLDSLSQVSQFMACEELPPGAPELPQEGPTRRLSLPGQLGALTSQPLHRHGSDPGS
row,Structure (SMILES),"hERG current change (%, negative = inhibition) at 10uM [%]"
1,COc1ccc(N2CCN(C(=O)c3cc(-c4cc(OC)ccc4OC)nc4ccccc34)CC2)cc1,-1.23
2,COc1ccccc1C(CNC(=O)C1CC(=O)N(Cc2ccc(C)cc2)C1)N1CCCC1 (stereo not drawn),2.47
3,O=C(NC(=O)c1ccc(Cl)cc1)Nc1cc(N2CCCCC2)ncn1,8.37
4,CCN(c1ccc(NC(=O)CSCc2c(C)noc2C)cc1)C(C)C,-7.72
5,NC(=O)c1nsc(C(=O)N(CC(=O)NCc2ccc(F)cc2)Cc2ccco2)c1N,-10.8
6,COC(=O)c1ccc(/C=N\n2c(C)nnc2C)cc1,18.9
7,Cc1occc1C(=O)N/N=C/c1ccccn1,9.8
8,CC(C)CCNC(=O)NC(=O)COC(=O)/C=C/c1cc(Br)ccc1F,19.4
9,CCn1c(CN2CCOCC2)nnc1SCC(=O)Nc1cccc(C)c1,-4.87
10,CC(C)C[C@@]12C(=O)N(c3cccc(Br)c3)C(=O)N1[C@H](c1ccc(F)cc1)[C@@H]1C(=O)N(C3CCCCC3)C(=O)[C@@H]12,31.9
11,O=C(N/N=C(/c1ccccc1)c1ccncc1)c1ccc2c(c1)OCO2,-14.6
12,O=S(=O)(Nc1nccs1)c1ccc(F)cc1,34.8
13,CCc1cc(C(=O)N2CCCC(C(=O)c3ccc(Cl)cc3)C2)no1 (stereo not drawn),-8.19
14,COc1ccc(S(=O)(=O)N(CC(=O)NCCC(C)C)c2ccccc2)cc1OC,8.08
15,COc1ccc(NC(=O)C2CCCCN2N)cc1OCC(C)C.O=C(O)C(=O)O (stereo not drawn),-5.25
16,Cc1nnc(SCc2nc3sc(C(=O)O)c(C)c3c(=O)[nH]2)s1,27.3
17,CC(C(=O)Nc1ccccc1)C(=O)Nc1ccccc1,15.2
18,CCOc1ccc(/C=C2\NC(=S)NC2=O)cc1,12.8
19,COc1nsnc1NS(=O)(=O)c1ccc(NC(=S)NC(=O)c2cccnc2)cc1,25.5
20,O=S(=O)(c1cccs1)N1CN(CC2CCCO2)c2nc3ccccc3nc21 (stereo not drawn),-16.1
21,O=c1c(O)c(-c2cccs2)oc2ccc(Cl)cc12,4.99
22,COc1ccc(-c2c(-c3cc(OC)cc(OC)c3)n(C)c3ccc(Br)cc23)cc1,18.6

row,Structure (SMILES),"hERG current change (%, negative = inhibition) at 10uM [%]"
1,CCOP(=O)(Cc1cc(C(=O)CC)c(C)o1)OCC,12.8
2,CCn1c(CNC(=O)c2ccccc2OC)nnc1SCC(=O)c1ccc(F)cc1,-9.15
3,CCCOc1ccc(N2C(=O)CC(NNC(=O)c3ccc(COc4ccccc4)o3)C2=O)cc1 (stereo not drawn),7.79
4,O=C(Nc1ccc(Br)cc1)c1cc(-c2ccc3c(c2)OCO3)on1,-5.31
5,O=S(=O)(NC1=NCCC1)c1cccc(NC(=S)NCCc2ccccc2)c1,5.47
6,COc1ccc(-c2cc(C3CCN(c4ncccc4[N+](=O)[O-])CC3)[nH]n2)cc1,-5.85
7,COc1ccc(-c2nc(-c3cccc(C)c3)nc(N3CCN(C)CC3)c2C#N)cc1,-8.67
8,COc1ccc(N(CC(=O)N/N=C/c2ccc3c(c2)OCO3)S(=O)(=O)c2ccc(NC(C)=O)cc2)cc1,14.7
9,COc1cc(C(=O)NC(=S)NNC(=O)c2cnccn2)cc(OC)c1OC,9.65
10,O=C(/C=C/c1ccc(Br)cc1)NC1CCCCCC1,-4.17
11,COc1ccc(CC(=O)NC(C)c2ccc3ccccc3c2)cc1 (stereo not drawn),14.6
12,CCn1c(=O)cc(SCC(=O)N2CCOCC2)c2ccccc21,-11.9
13,CSc1ccccc1NC(=O)Nc1cccc(Cl)c1Cl,11.3
14,Cc1cc(C)nc(SC2CCOC2=O)n1 (stereo not drawn),0.669
15,COc1ccc(NC(=O)N2CCCc3ccccc32)cc1,-9.42
16,CCCCC(=O)NNC(=O)c1c(O)c2ccccc2[nH]c1=O,-6.65
17,CC(C)[C@H](NC(=O)c1ccccc1F)C(=O)NCc1ccc(S(N)(=O)=O)cc1,10.3
18,O=C(CC1SC(=Nc2ccccc2)N(CCO)C1=O)Nc1ccccc1 (stereo not drawn),21
19,O=c1c2cc(Br)ccc2nc(-c2ccc(Cl)cc2)n1O,27.8
20,COc1cc(NC(=O)N2c3ccccc3Sc3ccccc32)c(C(=O)O)cc1OC,13.8
21,CCOC(=O)C(=O)NCC(c1cccs1)S(=O)(=O)c1ccc(Cl)cc1 (stereo not drawn),-18.2
22,Oc1[nH]c2ccccc2c1N=Nc1ccccc1,18.5

row,Structure (SMILES),"hERG current change (%, negative = inhibition) at 10uM [%]"
1,COCCn1c(SCc2csc(-c3ccccc3)n2)nc2ccccc21,-9.09
2,C=CCN1C(=O)c2ccccc2C1(O)Cc1ccccc1 (stereo not drawn),16.5
3,COc1cc(/C=C/C(=O)Nc2nc3ccc(S(=O)(=O)NC(C)C)cc3s2)cc(OC)c1OC,-6.51
4,O=C(CC(SCCO)c1ccc2c(c1)OCO2)c1cccs1 (stereo not drawn),-16.7
5,O=C(C[n+]1cc(Br)cc(Br)c1)c1ccccc1.[Br-],8.53
6,COc1ccc(O)c(-c2cc(C(F)(F)C(F)F)nc(-c3ccccc3)n2)c1,0.873
7,Cc1ccccc1N/N=C/c1sc(=O)n(Cc2cccc(C(=O)O)c2)c1Cl,38.9
8,CC(c1ccccc1)N1CCN(C(=O)CCl)CC1.Cl (stereo not drawn),9.63
9,CCN(CC)CC#CCC(O)(c1ccccc1)C1CCCC1.Cl (stereo not drawn),-11.7
10,O=C(O)c1cccc(N2C(=O)c3ccc(Oc4ccc(Cl)cc4)cc3C2=O)c1,12.8
11,CSc1nc(-c2ccccc2)nn1C(=O)c1ccco1,-0.58
12,COc1ccc(-c2nc(SC(CC(=O)NCCO)c3cccs3)n[nH]2)cc1 (stereo not drawn),-1.24
13,Cc1ccc(COc2ccccc2-c2cc(C(=O)N/N=C/c3cccnc3)[nH]n2)cc1,0.426
14,Cn1c(=O)c2c(ncn2CC(=O)OCC(=O)Nc2ccc(Cl)cc2Cl)n(C)c1=O,-21.1
15,Cc1c(C(=O)OCC(=O)N2CCCC2)cccc1[N+](=O)[O-],10.3
16,O=C(COC(=O)c1ccc(F)cc1)Nc1nc2ccc([N+](=O)[O-])cc2s1,17.1
17,O=C(CSc1n[nH]c(-c2ccccc2O)n1)NC1CCCCC1,7.36
18,Nc1cccc(P(=O)(c2ccccc2)c2ccccc2)c1,14.5
19,COC(=O)C1=C(C)N(CC(C)C)C(=O)/C1=C\c1cccs1,-0.448
20,CCC(C(=O)N1CCC(N2CCCCC2)CC1)n1nc(C)c2sc3ccccc3c2c1=O (stereo not drawn),-35.6
21,COc1ccc(C(NC(=O)CN2CCCCCC2)c2ccc(OC)cc2)cc1,-65.9
22,COc1cc(C(=O)Nc2ccc(Br)cc2C(=O)c2cc(OC)c(OC)c(OC)c2)cc(OC)c1OC,12

row,Structure (SMILES),"hERG current change (%, negative = inhibition) at 10uM [%]"
1,CCn1cc2nc(SCC(=O)Nc3ccc(F)cc3F)n(Cc3ccccc3)c(=O)c2n1,-40
2,COc1cc(C(=O)NCC(c2ccco2)N2CCOCC2)cc(OC)c1OC (stereo not drawn),16.9
3,O=C(c1cc(-c2ccccc2)on1)N1CCN(Cc2ccc3c(c2)OCO3)CC1,-50.1
4,COc1ccc(C2Nc3ccccc3C(=O)N2c2ccc(F)cc2)cc1CSc1ccccn1 (stereo not drawn),-0.322
5,CC1=NN(C(C#N)c2ccccc2O)C(C)(C)C1 (stereo not drawn),17.9
6,C=C(C)c1cccc(C(C)(C)NC(=O)N2CC(C)OC(C)C2)c1 (stereo not drawn),3.77
7,Cc1ccc(C2=[N+]([O-])C3(CCCCC/C3=N\NC(N)=O)N(O)C2(C)C)o1 (stereo not drawn),9.8
8,CN(C)CCCCCCCCCCC(=O)/C=N/O.Cl,-9.03
9,COCCNC(=O)C1CC(c2ccccc2[N+](=O)[O-])=NO1 (stereo not drawn),17.8
10,O=C(Cn1nnc(-c2ccc(OCc3ccccc3F)cc2)n1)N1CCOCC1,-4.97
11,O=C(c1ccc(S(=O)(=O)N2CCCCC2)cc1)N1CCN(c2ccccc2)CC1,3.03
12,CC(C)(C)NC(=O)CN(C(=O)CSc1nnc(COc2ccccc2)o1)c1cccc(F)c1,5.74
13,Cc1cccc(NC(=O)CCNS(=O)(=O)c2cccc3nsnc23)c1C,3.73
14,Cc1[nH]c(=O)[nH]c1C(=O)CCCCC(=O)O,-57.7
15,Cc1cccc(C(=O)Oc2ccc(/C=N/NC(=O)c3ccccc3O)cc2)c1,17.5
16,COC(=O)c1ccc(C(=O)OC)c(NC(=S)N2CCN(c3ccccc3)CC2)c1,-19.1
17,Cn1c(N)c(C(C[N+](=O)[O-])c2c(F)cccc2Cl)c(=O)n(C)c1=O (stereo not drawn),16.2
18,O=C(CSc1ncnc2sc3c(c12)CCCC3)N1CCC(c2noc3ccc(F)cc23)CC1,-7.24
19,CCN(CC)CCCNC(=O)COc1ccc2oc3c(c2c1)CCCC3.Cl,-45.7
20,Cc1cc(C)cc(N(CC(=O)NC2CCCC2)C(=O)CNC(=O)c2ccco2)c1,10.7
21,CNc1nc(OCC(F)(F)F)nc(N2CCOCC2)n1,5.76
